{"source": "the antibiotic and cytotoxicity screens of Wong et al. (2023)", "note": "The list shows a part of the results.", "data": [{"tested_on": "HepG2", "assay": "cytotoxicity call (relative viability < 0.9)", "conditions": "10 µM", "values": [{"molecule": "Nc1nc(=O)n([C@@H]2O[C@H](CO)[C@@H](O)[C@@H]2F)cc1I", "cytotoxicity call": "inactive"}, {"molecule": "COc1ccc(NC(=O)Nc2ccc3c(c2)C(=O)N([C@@H](C)CO)C[C@H](C)[C@@H](CN(C)CC2CC2)OCCCC[C@H](C)O3)cc1", "cytotoxicity call": "inactive"}, {"molecule": "CC(CCc1ccc(O)cc1)NCC(O)c1ccc(O)cc1.Cl", "note": "(centres undefined)", "cytotoxicity call": "inactive"}, {"molecule": "COc1ccccc1NC(=O)N(C)C[C@@H]1Oc2ncc(C#CC(C)C)cc2C(=O)N([C@@H](C)CO)C[C@H]1C", "cytotoxicity call": "inactive"}, {"molecule": "Cc1noc(C)c1NC(=O)Nc1ccc2c(c1)C(=O)N([C@@H](C)CO)C[C@H](C)[C@H](CN(C)S(=O)(=O)c1cccs1)OCCCC[C@H](C)O2", "cytotoxicity call": "inactive"}, {"molecule": "COc1ccc(NC(=O)N(C)C[C@H]2OCCCC[C@@H](C)Oc3ccc(NC(=O)CCC(F)(F)F)cc3C(=O)N([C@@H](C)CO)C[C@H]2C)cc1", "cytotoxicity call": "inactive"}, {"molecule": "C[C@H](CO)N1C[C@H](C)[C@@H](CN(C)Cc2ccc(C(=O)Nc3ccccc3N)cc2)OCc2cn(nn2)CCCC1=O", "cytotoxicity call": "inactive"}, {"molecule": "C[C@@H]1O[C@@H](O[C@H]2[C@H](O[C@H]3[C@H](O)[C@@H](C(=O)O)O[C@@H](O[C@H]4CC[C@]5(C)[C@H]6CC[C@]78OC[C@@]9(CCC(C)(C)C[C@@H]97)[C@H](O)C[C@@]8(C)[C@]6(C)CC[C@H]5C4(C)C)[C@@H]3OC3O[C@H](CO)[C@@H](O)[C@H](O)[C@H]3O)O[C@H](CO)[C@H](O)[C@@H]2O)[C@H](O)[C@H](O)[C@H]1O", "note": "(some centres undefined)", "cytotoxicity call": "active"}, {"molecule": "C[C@H](CO)N1C[C@H](C)[C@H](CN(C)Cc2cccnc2)Oc2cc(C#CCN(C)C)ccc2S1(=O)=O", "cytotoxicity call": "inactive"}]}]}
